According to publication PMC4077589:
These are yes or no findings as the source states them, for the method shown. In cells and extracts the contact can be indirect. Some entries that bind do so weakly or less than the wild type. Where a sequence is shown, tags or fusion partners need not be part of it.

T1: C-terminally FLAG-tagged full-length TMEM115 (TMEM115-FL-FLAG) (human), Q12893
T1 chain: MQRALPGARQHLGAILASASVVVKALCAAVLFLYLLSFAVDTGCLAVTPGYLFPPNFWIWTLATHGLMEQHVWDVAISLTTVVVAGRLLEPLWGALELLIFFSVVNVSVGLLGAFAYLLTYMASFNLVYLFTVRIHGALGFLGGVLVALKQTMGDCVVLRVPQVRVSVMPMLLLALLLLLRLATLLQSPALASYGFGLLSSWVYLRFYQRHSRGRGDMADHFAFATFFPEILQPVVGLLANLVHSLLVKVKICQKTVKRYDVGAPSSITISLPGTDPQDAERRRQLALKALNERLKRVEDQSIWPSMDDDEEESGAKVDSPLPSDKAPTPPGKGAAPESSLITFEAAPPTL

T2: full-length TMEM115–FLAG–HIS (in vitro translated) (human) (UniProt Q12893)
T2 sequence: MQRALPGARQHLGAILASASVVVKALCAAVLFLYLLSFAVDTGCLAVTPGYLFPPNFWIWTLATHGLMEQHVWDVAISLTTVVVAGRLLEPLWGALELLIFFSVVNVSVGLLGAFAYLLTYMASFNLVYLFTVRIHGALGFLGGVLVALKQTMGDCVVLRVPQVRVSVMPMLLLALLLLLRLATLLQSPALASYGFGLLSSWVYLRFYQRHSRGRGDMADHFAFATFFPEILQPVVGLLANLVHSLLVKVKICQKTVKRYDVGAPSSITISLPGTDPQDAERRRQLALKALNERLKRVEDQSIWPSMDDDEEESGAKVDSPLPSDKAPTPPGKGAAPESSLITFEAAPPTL


Legend:
[1] = biological target: T1, C-terminally FLAG-tagged full-length …; test: co-IP; FLAG immunoprecipitation from lysates of transfected HEK293 cells; lysis buffer 50 mM Tris-HCl pH 7.5, 150 mM NaCl, 1% Triton X-100; 4°C; immunoblotting; settings: remark: other sources report otherwise
[2] = biological target: T2, full-length TMEM115–FLAG–HIS (in vitro translated) (human); test: co-IP; in vitro translated products combined in cell lysis buffer, FLAG immunoprecipitation, beads washed with cell lysis buffer containing 150 mM NaCl
[3] = biological target: T2, full-length TMEM115–FLAG–HIS (in vitro translated) (human); test: co-IP; in vitro translated products combined in cell lysis buffer, FLAG immunoprecipitation, beads washed with cell lysis buffer containing 500 mM NaCl

binding [1] | binding [2] | Binder | binding [3]
binds |  | Myc–COG6 (transfected), Q9Y2V7 1-657 (protein) MAEGSGEVVAVSATGAANGLNNGAGGTSATTCNPLSRKLHKILETRLDNDKEMLEALKALSTFFVENSLRTRRNLRGDIERKSLAINEEFVSIFKEVKEELESISEDVQAMSNCCQDMTSRLQAAKEQTQDLIVKTTKLQSESQKLEIRAQVADAFLSKFQLTSDEMSLLRGTREGPITEDFFKALGRVKQIHNDVKVLLRTNQQTAGLEIMEQMALLQETAYERLYRWAQSECRTLTQESCDVSPVLTQAMEALQDRPVLYKYTLDEFGTARRSTVVRGFIDALTRGGPGGTPRPIEMHSHDPLRYVGDMLAWLHQATASEKEHLEALLKHVTTQGVEENIQEVVGHITEGVCRPLKVRIEQVIVAEPGAVLLYKISNLLKFYHHTISGIVGNSATALLTTIEEMHLLSKKIFFNSLSLHASKLMDKVELPPPDLGPSSALNQTLMLLREVLASHDSSVVPLDARQADFVQVLSCVLDPLLQMCTVSASNLGTADMATFMVNSLYMMKTTLALFEFTDRRLEMLQFQIEAHLDTLINEQASYVLTRVGLSYIYNTVQQHKPEQGSLANMPNLDSVTLKAAMVQFDRYLSAPDNLLIPQLNFLLSATVKEQIVKQSTELVCRAYGEVYAAVMNPINEYKDPENILHRSPQQVQTLLS | 
 | binds | Myc-tagged COG8 (in vitro translated) (protein, UniProt Q96MW5 1-612) MATAATIPSVATATAAALGEVEDEGLLASLFRDRFPEAQWRERPDVGRYLRELSGSGLERLRREPERLAEERAQLLQQTRDLAFANYKTFIRGAECTERIHRLFGDVEASLGRLLDRLPSFQQSCRNFVKEAEEISSNRRMNSLTLNRHTEILEILEIPQLMDTCVRNSYYEEALELAAYVRRLERKYSSIPVIQGIVNEVRQSMQLMLSQLIQQLRTNIQLPACLRVIGYLRRMDVFTEAELRVKFLQARDAWLRSILTAIPNDDPYFHITKTIEASRVHLFDIITQYRAIFSDEDPLLPPAMGEHTVNESAIFHGWVLQKVSQFLQVLETDLYRGIGGHLDSLLGQCMYFGLSFSRVGADFRGQLAPVFQRVAISTFQKAIQETVEKFQEEMNSYMLISAPAILGTSNMPAAVPATQPGTLQPPMVLLDFPPLACFLNNILVAFNDLRLCCPVALAQDVTGALEDALAKVTKIILAFHRAEEAAFSSGEQELFVQFCTVFLEDLVPYLNRCLQVLFPPAQIAQTLGIPPTQLSKYGNLGHVNIGAIQEPLAFILPKRETLFTLDDQALGPELTAPAPEPPAEEPRLEPAGPACPEGGRAETQAEPPSVGP | no binding (condition: beads washed with 500 mM NaCl)
 | binds | Myc-tagged COG7 (in vitro translated) (protein, UniProt P83436 1-770) MDFSKFLADDFDVKEWINAAFRAGSKEAASGKADGHAATLVMKLQLFIQEVNHAVEETSHQALQNMPKVLRDVEALKQEASFLKEQMILVKEDIKKFEQDTSQSMQVLVEIDQVKSRMQLAAESLQEADKWSTLSADIEETFKTQDIAVISAKLTGMQNSLMMLVDTPDYSEKCVHLEALKNRLEALASPQIVAAFTSQAVDQSKVFVKVFTEIDRMPQLLAYYYKCHKVQLLAAWQELCQSDLSLDRQLTGLYDALLGAWHTQIQWATQVFQKPHEVVMVLLIQTLGALMPSLPSCLSNGVERAGPEQELTRLLEFYDATAHFAKGLEMALLPHLHEHNLVKVTELVDAVYDPYKPYQLKYGDMEESNLLIQMSAVPLEHGEVIDCVQELSHSVNKLFGLASAAVDRCVRFTNGLGTCGLLSALKSLFAKYVSDFTSTLQSIRKKCKLDHIPPNSLFQEDWTAFQNSIRIIATCGELLRHCGDFEQQLANRILSTAGKYLSDSCSPRSLAGFQESILTDKKNSAKNPWQEYNYLQKDNPAEYASLMEILYTLKEKGSSNHNLLAAPRAALTRLNQQAHQLAFDSVFLRIKQQLLLISKMDSWNTAGIGETLTDELPAFSLTPLEYISNIGQYIMSLPLNLEPFVTQEDSALELALHAGKLPFPPEQGDELPELDNMADNWLGSIARATMQTYCDAILQIPELSPHSAKQLATDIDYLINVMDALGLQPSRTLQHIVTLLKTRPEDYRQVSKGLPRRLATTVATMRSVNY | no binding (condition: beads washed with 500 mM NaCl)
binds |  | endogenous COG3, Q96JB2 1-828 (protein) MAEAALLLLPEAAAERDAREKLALWDRRPDTTAPLTDRQTDSVLELKAAAENLPVPAELPIEDLCSLTSQSLPIELTSVVPESTEDILLKGFTSLGMEEERIETAQQFFSWFAKLQTQMDQDEGTKYRQMRDYLSGFQEQCDAILNDVNSALQHLESLQKQYLFVSNKTGTLHEACEQLLKEQSELVDLAENIQQKLSYFNELETINTKLNSPTLSVNSDGFIPMLAKLDDCITYISSHPNFKDYPIYLLKFKQCLSKALHLMKTYTVNTLQTLTSQLLKRDPSSVPNADNAFTLFYVKFRAAAPKVRTLIEQIELRSEKIPEYQQLLNDIHQCYLDQRELLLGPSIACTVAELTSQNNRDHCALVRSGCAFMVHVCQDEHQLYNEFFTKPTSKLDELLEKLCVSLYDVFRPLIIHVIHLETLSELCGILKNEVLEDHVQNNAEQLGAFAAGVKQMLEDVQERLVYRTHIYIQTDITGYKPAPGDLAYPDKLVMMEQIAQSLKDEQKKVPSEASFSDVHLEEGESNSLTKSGSTESLNPRPQTTISPADLHGMWYPTVRRTLVCLSKLYRCIDRAVFQGLSQEALSACIQSLLGASESISKNKTQIDGQLFLIKHLLILREQIAPFHTEFTIKEISLDLKKTRDAAFKILNPMTVPRFFRLNSNNALIEFLLEGTPEIREHYLDSKKDVDRHLKSACEQFIQQQTKLFVEQLEEFMTKVSALKTMASQGGPKYTLSQQPWAQPAKVNDLAATAYKTIKTKLPVTLRSMSLYLSNKDTEFILFKPVRNNIQQVFQKFHALLKEEFSPEDIQIIACPSMEQLSLLLLVSK | 
binds |  | Myc–COG3 (transfected), Q96JB2 1-828 (protein) MAEAALLLLPEAAAERDAREKLALWDRRPDTTAPLTDRQTDSVLELKAAAENLPVPAELPIEDLCSLTSQSLPIELTSVVPESTEDILLKGFTSLGMEEERIETAQQFFSWFAKLQTQMDQDEGTKYRQMRDYLSGFQEQCDAILNDVNSALQHLESLQKQYLFVSNKTGTLHEACEQLLKEQSELVDLAENIQQKLSYFNELETINTKLNSPTLSVNSDGFIPMLAKLDDCITYISSHPNFKDYPIYLLKFKQCLSKALHLMKTYTVNTLQTLTSQLLKRDPSSVPNADNAFTLFYVKFRAAAPKVRTLIEQIELRSEKIPEYQQLLNDIHQCYLDQRELLLGPSIACTVAELTSQNNRDHCALVRSGCAFMVHVCQDEHQLYNEFFTKPTSKLDELLEKLCVSLYDVFRPLIIHVIHLETLSELCGILKNEVLEDHVQNNAEQLGAFAAGVKQMLEDVQERLVYRTHIYIQTDITGYKPAPGDLAYPDKLVMMEQIAQSLKDEQKKVPSEASFSDVHLEEGESNSLTKSGSTESLNPRPQTTISPADLHGMWYPTVRRTLVCLSKLYRCIDRAVFQGLSQEALSACIQSLLGASESISKNKTQIDGQLFLIKHLLILREQIAPFHTEFTIKEISLDLKKTRDAAFKILNPMTVPRFFRLNSNNALIEFLLEGTPEIREHYLDSKKDVDRHLKSACEQFIQQQTKLFVEQLEEFMTKVSALKTMASQGGPKYTLSQQPWAQPAKVNDLAATAYKTIKTKLPVTLRSMSLYLSNKDTEFILFKPVRNNIQQVFQKFHALLKEEFSPEDIQIIACPSMEQLSLLLLVSK | 
